This is one part of the list.

In this assay the test system is PF3D7_0420300 AP2 domain 1 (GST-tagged). As to the kind of experiment: gcPBM binding intensity (ln(normalized median fluorescence intensity)); higher = stronger DNA binding. The gist of the method: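 An Agilent 4 × 180k array of primer-extended double-stranded 36-bp intergenic genomic probes, with negative controls, was incubated for 1 h with GST-tagged P. falciparum DNA-binding domains expressed in E. coli. Alexa488 anti-GST antibody detected bound protein, scanned at 488 nm. Binding intensity is the highest Masliner-normalised natural-log median intensity across replicate spots of either probe orientation.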
As to “TATACAATATTTATAACACACATATTTATATAAACT [CACACA_site6932]”, the “gcPBM binding intensity (ln)” value is 9.43.
The figure for “AGAACATTTTCTCAGTGTACTTATATATTTGACATA [XGTACX_site6541]” is 9.25; for “ACTAAACAATATGTATGTACATATTTTACATATAAT [XGTACX_site3318]” it is 9.26.
The figure for “ATATATCATGAACCTTGTACGTATATATATATATAT [XGTACX_site239]” is 9.37; for “ACTTCCTATATTTATGCATGCATTTTATTAAAAAAT [TGCATGCA_site747]” it is 9.34; for “TAACAAAAAGCACTTAGTACATATATATATATATAT [XGTACX_site1099]” it is 9.39.
In the case of “AATATAACTTTTTGCACACTTAATTTTTTTTTTTAA [CACACA_site3365]”, the “gcPBM binding intensity (ln)” value is 9.51.
Take “TTTCTTTTTAAATATATACACACCGGGTGTACATAT [CACACA_site3345]”: the “gcPBM binding intensity (ln)” value turned out to be 9.29.
The figure for “TATATTTATTATAACACACACATATTTATATTATAG [CACACA_site6628]” is 9.61.
Under “AGGTAATATACTAAATGTACAGAAAAACGAATTTTT [XGTACX_site2977]” stands 9.36; under “AATGAAATAATACAATGTACGTTAAAAAAAAATAAA [XGTACX_site7928]”, 9.46.
The figure for “TAATATCAAACCTATAGTACATAAGGTATAAAAAAG [XGTACX_site3533]” is 9.29; for “GTATTATTTTATGATGCATGTGTATTTCATATATGC [TGCATGCA_site660]” it is 9.19; for “GTTAAGTGTATATATACACACATATGTAATACATGA [CACACA_site3048]” it is 9.47.
For “TAATTAAAATTATATATTAGAAAAAACATATAAAAC [CACACA_negctrl_site190]”, the “gcPBM binding intensity (ln)” value worked out at 9.37.
Under “ATATGTAGAATAAAAAAAAAAAAAAAAAAAAAAAAT [CACACA_negctrl_site621]” stands 9.39; under “AATATTGAAATAACGCGTACAAAAAAAAGTTATATT [XGTACX_site6559]”, 9.47; under “TAAAAATATATGTATACACACATATATATATATATA [CACACA_site3951]”, 9.21.
With “AAAAAAAGTGACTCCTTACACACTTTACATAATTTA [CACACA_site820]”, the “gcPBM binding intensity (ln)” value turned out to be 9.3.
The figure for “ATGTTATATTATAAAAGTACATTTTATTTTTATTTA [XGTACX_site4365]” is 9.16; for “ATTTCCTTTTTCTGTTGTACTCATAAAATAATATGT [XGTACX_site7234]” it is 9.46; for “TTAATTTATAAAAACACACACAGGTAAAAAGGTGCA [CACACA_site1177]” it is 9.74.
The figure for CTTATAATATTACGGGTGCTATAAATACATTATATT is 9.39; for “TAAATCAAAAACAACAAGTCATATTAAAGATGGTAT [CACACA_negctrl_site1321]” it is 9.51.
Under “TTGTTTCAAAATTAAACACACACAAAAAAAAAAAAA [CACACA_site8856]” stands 9.48.

For the origin of these results see the supplement of paper PMC11417369.
